Holding throughout (assay): Primary Screen for Target Class Profiling of Small Molecule Inhibitors of Methyltransferases
Assay [1] addresses Glycine N-methyltransferase (Homo sapiens) (UniProt Q14749). Conditions: purified enzyme, MTase-Glo SAH luminescence; measured here: GNMT inhibition; at 40 µM; stronger effect = lower value. In a few lines: (§1)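 Each enzyme was assayed with SAM and its substrate. SAH formation detected by MTase-Glo luminescence; single-point 40 uM screen[…].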
Assay [2] deals with Guanidinoacetate N-methyltransferase (Homo sapiens) (UniProt Q14353). Conditions: purified enzyme, MTase-Glo SAH luminescence; measured here: GAMT inhibition; at 40 µM; stronger effect = lower value. In a few lines: as §1
Assay [3] addresses Histamine N-methyltransferase (Homo sapiens) (UniProt P50135). Conditions: purified enzyme, MTase-Glo SAH luminescence; measured here: HNMT inhibition; at 40 µM; stronger effect = lower value. In outline: as §1
The target in assay [4] is Nicotinamide N-methyltransferase (Homo sapiens) (UniProt P40261). The settings on record: purified enzyme, MTase-Glo SAH luminescence; measured here: NNMT inhibition; at 40 µM; stronger effect = lower value. In outline: as §1
In assay [5] the target is Phenylethanolamine N-methyltransferase (Homo sapiens) (UniProt P11086). Conditions: purified enzyme, MTase-Glo SAH luminescence; measured here: PNMT inhibition; at 40 µM; stronger effect = lower value. In a few lines:
as §1

Values joined by “and” are separate entries in the source; they are usually repeats but may differ in a detail not shown here. Identical values can stand only once. The list shows a part of the results. Shown are side measurements of this screen, not its main read-out; they come without a call.
% is scaled to controls: 0 for no effect and ±100 for the full control effect.

As for `Fc1ccc2nc(CO[C@H]3CN(C4CCOCC4)C[C@H]3F)[nH]c2c1`, the activity change, negative = inhibition was -6.86% in assay [1]; -3.36% in assay [2]; -3.42% in assay [3]; -7.25% in assay [4]; -8.59% in assay [5].
On to `CCCn1c(=O)c2ccc(C(=O)NC(C)CC)cc2n2c(=O)n(CC(=O)Nc3ccc(C)c(C)c3)nc12` (stereo not drawn), for which the activity change, negative = inhibition in assay [1] is 0.557%; in assay [2] it was 3.02%; in assay [3], 0.101%; in assay [4], -4.36%; in assay [5] it was -4.44%.
On the same counts, the results for `CC1OC(OC2C(C)OC(OC3C(OC(=O)/C=C/c4ccc(O)cc4)C(CO)OC(OC4(COC(=O)/C=C/c5ccc(O)cc5)OC(CO)C(O)C4O)C3OC3OCC(O)(CO)C3O)C(O)C2O)C(O)C(O)C1O` (stereo not drawn) are 0.111%, -0.253%, 6.99%, -11.9% and -3.3%.
Turning to `O=C(CCc1nnc2n(Cc3ccc(F)cc3)c(=O)c3ccccc3n12)N1CCC(Cc2ccccc2)CC1`, the activity change, negative = inhibition was -5.89% in assay [1]; 3.9% in assay [2]; 1.13% in assay [3]; -6.42% in assay [4]; -4.55% in assay [5].
The like results for `Cc1cc(C(=O)N2Cc3cnn(C)c3Nc3ccccc32)ccc1CNC(=O)N1CCN(Cc2cc(O)cc(O)c2)CC1` were, in that order, -23.6%, 7.47%, 1.81%, -20.5% and -5.9%.
The like results for `COc1ccc(-c2n[nH]n3c2nc(=O)c2ccc(C(=O)NCCc4ccc(OC)c(OC)c4)cc23)cc1` were, in that order, -12.1%, 3.04%, -2.79%, -1.76% and -1.99%.
On to `C=C(C)[C@@H]1CCC2=CC(=O)C[C@@H](C)[C@]2(C)C1`, for which the activity change, negative = inhibition in assay [2] is 7.82%; in assay [4] it was -14.5%; in assay [5], -5.94%.
Take `CC(C)CN1CCC[C@H]1c1nc(-c2ccnc(NS(C)(=O)=O)c2)no1`: the activity change, negative = inhibition was -2.62% in assay [1]; -2.21% in assay [2]; -1.02% in assay [3]; -6.9% in assay [4]; 9.71% in assay [5].
In the case of `C[C@@H](c1ncncc1F)[C@](O)(Cn1cncn1)c1ccc(F)cc1F`, the activity change, negative = inhibition in assay [1] is -5.8%; in assay [2] it was 2.49% and 1.37%; in assay [3], -3.15%; in assay [4], -9.07% and -11.4%; in assay [5] it was 4.2% and -2.31%.
In the case of `CCOCCCN1C(=O)c2cc3occc3n2CC1(C)C(=O)NC1CCCCCC1` (stereo not drawn), the activity change, negative = inhibition in assay [1] turned out to be 4.2%; in assay [2], 0.824%; in assay [3], 7.92%; in assay [4], 8.72%; in assay [5], 0.655%.
On to `COC(=O)c1ncn2c1C(=O)N(Cc1ccccc1C)C(C)(C(=O)NC1CCCCCC1)C2` (stereo not drawn), for which the activity change, negative = inhibition in assay [1] was found to be 4.37%; in assay [2], 0%; in assay [3] it was 7.9%; in assay [4], 12.9%; in assay [5] it was 2.94%.
The like results for `Cc1c(NC(=O)c2ccc(C(C)(C)C)cc2)cccc1-c1cn(C)c(=O)c(Nc2ccc(C(=O)N3CCOCC3)cc2)n1` were, in that order, 0.336%, 10.9%, 4.11%, -19.3% and -1.48%.
As to `C/C=C(\C)C(=O)O[C@@H]1CC2[C@@H](CC=C3C[C@@H](O[C@H]4C[C@H](OC)[C@H](O[C@H]5C[C@H](OC)[C@H](O[C@@H]6O[C@H](C)[C@@H](O[C@H]7C[C@H](OC)[C@H](O[C@@H]8O[C@H](CO)[C@@H](O)[C@H](O)[C@H]8O)[C@@H](C)O7)[C@H](OC)[C@H]6O)[C@@H](C)O5)[C@@H](C)O4)CC[C@@]32C)[C@@]2(O)CC[C@H](C(C)=O)[C@@]12C` (stereo partly drawn), the activity change, negative = inhibition was 0% in assay [1]; 17.4% in assay [2]; 6.36% in assay [3]; 4.3% in assay [4]; 11.4% in assay [5].
On the same counts, the results for `CN1CCN(CCNC(=O)c2cc(-c3ccccc3)cn2C)CC1` are -4.02%, -4.82%, -5.66%, -3.36% and -2.93%.
On the same counts, the results for `COCCOc1ccc(-c2noc([C@@H]3CCCN3C3CCCCC3)n2)cn1` are 1.76%, -4.97%, 1.94%, -1.84% and 1.8%.
In the case of `COCc1noc(-c2ccc(NC[C@H]3CCc4ccccc4O3)nc2)n1`, the activity change, negative = inhibition was -5.64% in assay [1]; -4.46% in assay [2]; -4.09% in assay [3]; -6.83% in assay [4]; -7.85% in assay [5].
With `COC(=O)c1ccc(NS(=O)(=O)c2ccc3[nH]c4c(c3c2)CCCC4)cc1`, the activity change, negative = inhibition is -15.6% in assay [1]; -1.01% in assay [2]; -5.7% in assay [3]; -7.41% in assay [4]; -2.23% in assay [5].
For `CCOC(=O)c1ccc2c(c1)[C@@H]1C=CC[C@@H]1[C@H](c1ccc(C)cc1)N2`, the activity change, negative = inhibition in assay [1] is -21.1%; in assay [2] it was -4.74%; in assay [3], -13.3%; in assay [4], -21.1%; in assay [5], -16%.
`CCNc1nccc(N2CCC(CC(=O)NCC(C)C)CC2)n1`: the activity change, negative = inhibition in assay [1] is -1.81%; in assay [2] it was 0.169%; in assay [3] it was -67.2%; in assay [4] it was -3.15%; in assay [5] it was -1.28%.
In the case of `Cc1ccc(C(=O)N2CCC(N3CCOCC3=O)CC2)cc1`, the activity change, negative = inhibition was 1.44% in assay [1]; -4.76% in assay [2]; 0.627% in assay [3]; 1.93% in assay [4]; -3.17% in assay [5].
For the compound `COc1cccc(CN2C(=O)c3nc4ccccc4n3CC2(C)C(=O)NC2CCCCC2C)c1` (stereo not drawn), the activity change, negative = inhibition in assay [1] was -0.347%; in assay [2] it was 4.95%; in assay [3] it was 4.24%; in assay [4], -0.803%; in assay [5], -1.29%.
For `O=c1[nH]c(=O)n([C@H]2CCCO2)cc1F`, the activity change, negative = inhibition in assay [1] is 1.88%; in assay [2], 2.28%; in assay [3] it was 8.53%; in assay [4], -9.45%; in assay [5], 0.594%.
For `CC(=O)c1c(C)cc(O)cc1O[C@@H]1O[C@H](CO)[C@@H](O)[C@H](O)[C@H]1O`, the activity change, negative = inhibition in assay [1] is 5.47%; in assay [2] it was 5.38%; in assay [3] it was 4.6%; in assay [4], -8.88%; in assay [5], 4.55%.
On to `Cc1cc2c(cc1S(=O)(=O)Nc1ccc(Cl)cc1)n(C)c(=O)n2C`, for which the activity change, negative = inhibition in assay [1] is -3.22%; in assay [2], 0%; in assay [3], -6.15%; in assay [4], -10.8%; in assay [5], -6.95%.
On to `CN(C)CCN(C)[C@@H]1[C@H](O)[C@H](CO)O[C@@H]1CNCc1cccc(Cl)c1`, for which the activity change, negative = inhibition is -4.43% in assay [1]; -6.27% in assay [2]; -3.31% in assay [3]; -8.69% in assay [4]; -1.14% in assay [5].
On to `CN[C@@H](C)[C@H]1[C@H](O)C[C@@]2(C)[C@@H]3CC[C@H]4C(C)(C)[C@@H](NC)CC[C@@]45C[C@@]35CC[C@]12C`, for which the activity change, negative = inhibition in assay [1] was 5.45%; in assay [2], 1.18%; in assay [3], -4.36%; in assay [4] it was -3.43%; in assay [5] it was 9.95%.
As to `Cc1cccc(-c2nc3ccc(C(=O)NC4CCCCCC4)cc3o2)n1`, the activity change, negative = inhibition in assay [1] is -13.9%; in assay [2], -16.2%; in assay [3], -23.4%; in assay [4] it was -20.6%; in assay [5] it was -3.45%.
As to `Cn1ccnc1C(=O)N1C[C@@H](COCC2CC2)[C@H](c2ccncc2)C1`, the activity change, negative = inhibition in assay [1] is 0.035%; in assay [2], 0.919%; in assay [3], 1.86%; in assay [4], 0.25%; in assay [5], -3.23%.

For the origin of these results see PubChem BioAssay AID1745853 (National Center for Advancing Translational Sciences (NCATS), 2022).
